The other results are listed elsewhere or left out. Most values come without repeats; read them as rough.
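Note: cell number obtained by counting DAPI-stained nuclei in high-throughput microscope images with image analysis software, screen run in 1,536-well plates.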

For this assay, the system named is MZ2-MEL. Put plainly: cell count relative to DMSO control; melanoma cells; higher = more viable cells. As to conditions: library dose: low library concentration; 72 h.
Compound `CC(C)(C)c1cnc(CSc2cnc(NC(=O)C3CCNCC3)s2)o1` + COc1ccc2c(c1)CCC1C2CCC2(C)C(NCCCCCCN3C(=O)C=CC3=O)CCC12 [U73122] (first compound 0.01 µM, partner dose 0.4 µM) came in with a cell count of 97.6%. The value for `CC(C)(C)c1cnc(CSc2cnc(NC(=O)C3CCNCC3)s2)o1` + Oc1cc(-c2nc(-c3ccccc3)[nH]c2-c2ccncc2)ccc1Cl [L779450] (first compound 0.01 µM, partner dose 0.2 µM) was 78.1%. To `CC(C)(C)c1cnc(CSc2cnc(NC(=O)C3CCNCC3)s2)o1` + Cn1cc(/C=C2\C(=O)Nc3cccnc32)c2ccccc21 [GW441756] (first compound 0.01 µM, partner dose 0.4 µM) belongs 102%.

`CN(NC(=O)CC(=O)NN(C)C(=S)c1ccccc1)C(=S)c1ccccc1` + COc1cc2ncnc(Nc3ccc(Oc4ccccc4)cc3)c2cc1OC [SrcI1] (first compound 0.006 µM, partner dose 2 µM): the cell count was 92.4%. To `CCc1ccc(CCOc2ccc(CC3SC(=O)NC3=O)cc2)nc1` (stereo not given) [pioglitazone] + c1cc(-c2cnn3cc(-c4ccc(OCCN5CCCCC5)cc4)cnc23)ccn1 [Dorsomorphin] (first compound 2 µM, partner dose 0.4 µM) belongs 106%; to `Cc1ccc(NC(=O)c2cccc(N(C)C)c2)cc1NC(=O)c1ccc(O)cc1` + Cn1cc(/C=C2\C(=O)Nc3cccnc32)c2ccccc21 [GW441756] (first compound 2 µM, partner dose 0.4 µM), 70.8%.

Take `CN(NC(=O)CC(=O)NN(C)C(=S)c1ccccc1)C(=S)c1ccccc1` + O=c1cc(-c2cccc3c2Sc2ccccc2S3)oc(N2CCOCC2)c1 [KU55933] (first compound 0.006 µM, partner dose 1 µM): the cell count came to 102%.

For `CC(C)(C)c1cnc(CSc2cnc(NC(=O)C3CCNCC3)s2)o1` + O=C1NC(=O)/C(=C/c2ccc(-c3ccc(F)cc3O)o2)S1 [AS252424] (first compound 0.01 µM, partner dose 1 µM), the cell count came out at 101%.

Consider `CN(NC(=O)CC(=O)NN(C)C(=S)c1ccccc1)C(=S)c1ccccc1` + O=C(Nc1ccccc1)c1cc([N+](=O)[O-])ccc1Cl [GW9662] (first compound 0.006 µM, partner dose 2 µM), for which the cell count is 93%.

`COc1cc2c(Oc3ccc4[nH]c(C)cc4c3F)ncnc2cc1OCCCN1CCCC1` [cediranib] + O=C(O)C(=O)Nc1sc2c(c1C(=O)O)CCNC2 [TCS401] (first compound 0.4 µM, partner dose 1.66667 µM) gave a cell count of 100%.

`CC(C)(C)c1cnc(CSc2cnc(NC(=O)C3CCNCC3)s2)o1` + O=c1cc(-c2cccc3c2Sc2ccccc2S3)oc(N2CCOCC2)c1 [KU55933] (first compound 0.01 µM, partner dose 1 µM) gave a cell count of 102%. Take `COc1cc2c(Oc3ccc4[nH]c(C)cc4c3F)ncnc2cc1OCCCN1CCCC1` [cediranib] + CCc1ccc(CCOc2ccc(CC3SC(=O)NC3=O)cc2)nc1 [pioglitazone] (first compound 0.4 µM, partner dose 2 µM): the cell count was 99.2%. `CN(NC(=O)CC(=O)NN(C)C(=S)c1ccccc1)C(=S)c1ccccc1` + O=C(O)C(=O)Nc1sc2c(c1C(=O)O)CCNC2 [TCS401] (first compound 0.006 µM, partner dose 1.66667 µM) had a cell count of 104%. The value for `CN(NC(=O)CC(=O)NN(C)C(=S)c1ccccc1)C(=S)c1ccccc1` + Cn1cc(/C=C2\C(=O)Nc3cccnc32)c2ccccc21 [GW441756] (first compound 0.006 µM, partner dose 0.4 µM) was 91.6%; that for `Cc1ccc(NC(=O)c2cccc(N(C)C)c2)cc1NC(=O)c1ccc(O)cc1` + CCc1ccc(CCOc2ccc(CC3SC(=O)NC3=O)cc2)nc1 [pioglitazone] (first compound 2 µM, partner dose 2 µM) was 72%.

`COc1cc2c(Oc3ccc4[nH]c(C)cc4c3F)ncnc2cc1OCCCN1CCCC1` [cediranib] + N#Cc1c(O)c2c(-c3ccc(-c4ccccc4O)cc3)csc2[nH]c1=O [A769662] (first compound 0.4 µM, partner dose 2 µM) showed a cell count of 96.2%. As to `CCc1ccc(CCOc2ccc(CC3SC(=O)NC3=O)cc2)nc1` (stereo not given) [pioglitazone] + Cc1cc([N+](=O)[O-])ccc1NS(=O)(=O)c1cc(Cl)ccc1Cl [FH535] (first compound 2 µM, partner dose 1 µM), the cell count worked out at 96.9%. To `CCc1ccc(CCOc2ccc(CC3SC(=O)NC3=O)cc2)nc1` (stereo not given) [pioglitazone] + COC(=O)c1sccc1S(=O)(=O)Nc1ccc(Nc2ccccc2)cc1OC [GSK0660] (first compound 2 µM, partner dose 1 µM) belongs 96.8%; to `COc1cc2c(Oc3ccc4[nH]c(C)cc4c3F)ncnc2cc1OCCCN1CCCC1` [cediranib] + COc1ccc(COc2ccc(Cc3cnc(N)nc3N)cc2OC)cc1 [GW2580] (first compound 0.4 µM, partner dose 1 µM), 99.9%; to `Cc1ccc(NC(=O)c2cccc(N(C)C)c2)cc1NC(=O)c1ccc(O)cc1` + COc1ccc2c(c1)CCC1C2CCC2(C)C(NCCCCCCN3C(=O)C=CC3=O)CCC12 [U73122] (first compound 2 µM, partner dose 0.4 µM), 74.7%. With `CN(NC(=O)CC(=O)NN(C)C(=S)c1ccccc1)C(=S)c1ccccc1` + CCc1ccc(CCOc2ccc(CC3SC(=O)NC3=O)cc2)nc1 [pioglitazone] (first compound 0.006 µM, partner dose 2 µM), the cell count was determined as 103%. To `CN(NC(=O)CC(=O)NN(C)C(=S)c1ccccc1)C(=S)c1ccccc1` + Oc1nc(-c2ccc(C(F)(F)F)cc2)nc2c1CSCC2 [XAV939] (first compound 0.006 µM, partner dose 2 µM) belongs 91.8%.

`CCc1ccc(CCOc2ccc(CC3SC(=O)NC3=O)cc2)nc1` (stereo not given) [pioglitazone] + CCN(CC)CCCCNc1ncc2cc(-c3cc(OC)cc(OC)c3)c(NC(=O)NC(C)(C)C)nc2n1 [PD173074] (first compound 2 µM, partner dose 0.1 µM) showed a cell count of 105%. `CN(NC(=O)CC(=O)NN(C)C(=S)c1ccccc1)C(=S)c1ccccc1` + Cc1cc([N+](=O)[O-])ccc1NS(=O)(=O)c1cc(Cl)ccc1Cl [FH535] (first compound 0.006 µM, partner dose 1 µM): the cell count was found to be 96.9%.

`CC(C)(C)c1cnc(CSc2cnc(NC(=O)C3CCNCC3)s2)o1` + CCCCCCCCCCCC1=C(O)C(=O)C=C(O)C1=O [Embelin] (first compound 0.01 µM, partner dose 1.2 µM): the cell count is 101%.

`Cc1ccc(NC(=O)c2cccc(N(C)C)c2)cc1NC(=O)c1ccc(O)cc1` + O=C1NC(=O)/C(=C/c2ccc(-c3ccc(F)cc3O)o2)S1 [AS252424] (first compound 2 µM, partner dose 1 µM) gave a cell count of 77.1%. Compound `CC(C)(C)c1cnc(CSc2cnc(NC(=O)C3CCNCC3)s2)o1` + CCN(CC)CCCCNc1ncc2cc(-c3cc(OC)cc(OC)c3)c(NC(=O)NC(C)(C)C)nc2n1 [PD173074] (first compound 0.01 µM, partner dose 0.1 µM) yielded a cell count of 91.6%. In the case of `Cc1ccc(NC(=O)c2cccc(N(C)C)c2)cc1NC(=O)c1ccc(O)cc1` + COc1ccc(-c2ccc3c(N4CCOCC4)nc(N4C[C@@H](C)O[C@@H](C)C4)nc3n2)cc1CO [KU0063794] (first compound 2 µM, partner dose 0.02 µM), the cell count worked out at 80.9%. `Cc1ccc(NC(=O)c2cccc(N(C)C)c2)cc1NC(=O)c1ccc(O)cc1` + O=C(Nc1ccccc1)c1cc([N+](=O)[O-])ccc1Cl [GW9662] (first compound 2 µM, partner dose 2 µM) returned a cell count of 80.9%.

Regarding `CCc1ccc(CCOc2ccc(CC3SC(=O)NC3=O)cc2)nc1` (stereo not given) [pioglitazone] + COc1ccc(-c2ccc3c(N4CCOCC4)nc(N4C[C@@H](C)O[C@@H](C)C4)nc3n2)cc1CO [KU0063794] (first compound 2 µM, partner dose 0.02 µM), the cell count was 102%. Compound `COc1cc2c(Oc3ccc4[nH]c(C)cc4c3F)ncnc2cc1OCCCN1CCCC1` [cediranib] + COC(=O)c1sccc1S(=O)(=O)Nc1ccc(Nc2ccccc2)cc1OC [GSK0660] (first compound 0.4 µM, partner dose 1 µM) had a cell count of 98.6%. For `CN(NC(=O)CC(=O)NN(C)C(=S)c1ccccc1)C(=S)c1ccccc1` + COc1ccc(-c2ccc3c(N4CCOCC4)nc(N4C[C@@H](C)O[C@@H](C)C4)nc3n2)cc1CO [KU0063794] (first compound 0.006 µM, partner dose 0.02 µM), the cell count stood at 93.8%. As for `CCc1ccc(CCOc2ccc(CC3SC(=O)NC3=O)cc2)nc1` (stereo not given) [pioglitazone] + COc1ccc(COc2ccc(Cc3cnc(N)nc3N)cc2OC)cc1 [GW2580] (first compound 2 µM, partner dose 1 µM), the cell count is 102%. `Cc1ccc(NC(=O)c2cccc(N(C)C)c2)cc1NC(=O)c1ccc(O)cc1` + CCCCCCCCCCCC1=C(O)C(=O)C=C(O)C1=O [Embelin] (first compound 2 µM, partner dose 1.2 µM) came in with a cell count of 77.6%. `Cc1ccc(NC(=O)c2cccc(N(C)C)c2)cc1NC(=O)c1ccc(O)cc1` + CCN(CC)CCCCNc1ncc2cc(-c3cc(OC)cc(OC)c3)c(NC(=O)NC(C)(C)C)nc2n1 [PD173074] (first compound 2 µM, partner dose 0.1 µM): the cell count is 68.2%.

These data come from the supplement of paper PMC4604168 (melanoma cell lines).
